{
  "source": "paper PMC4336329",
  "about": "(PLoS ONE, 2015)",
  "note": "The whole screen tested about 310,000 compounds, of which about 2,200 (0.71%) showed an effect of 50% or more. Effects have a minus sign here. The list shows a part of the results.",
  "data": [
    {"molecular_target": "human ether-à-go-go-related gene (hERG) potassium channel (human, UniProt Q12809)", "sequence (Q12809 whole entry, looked up)": "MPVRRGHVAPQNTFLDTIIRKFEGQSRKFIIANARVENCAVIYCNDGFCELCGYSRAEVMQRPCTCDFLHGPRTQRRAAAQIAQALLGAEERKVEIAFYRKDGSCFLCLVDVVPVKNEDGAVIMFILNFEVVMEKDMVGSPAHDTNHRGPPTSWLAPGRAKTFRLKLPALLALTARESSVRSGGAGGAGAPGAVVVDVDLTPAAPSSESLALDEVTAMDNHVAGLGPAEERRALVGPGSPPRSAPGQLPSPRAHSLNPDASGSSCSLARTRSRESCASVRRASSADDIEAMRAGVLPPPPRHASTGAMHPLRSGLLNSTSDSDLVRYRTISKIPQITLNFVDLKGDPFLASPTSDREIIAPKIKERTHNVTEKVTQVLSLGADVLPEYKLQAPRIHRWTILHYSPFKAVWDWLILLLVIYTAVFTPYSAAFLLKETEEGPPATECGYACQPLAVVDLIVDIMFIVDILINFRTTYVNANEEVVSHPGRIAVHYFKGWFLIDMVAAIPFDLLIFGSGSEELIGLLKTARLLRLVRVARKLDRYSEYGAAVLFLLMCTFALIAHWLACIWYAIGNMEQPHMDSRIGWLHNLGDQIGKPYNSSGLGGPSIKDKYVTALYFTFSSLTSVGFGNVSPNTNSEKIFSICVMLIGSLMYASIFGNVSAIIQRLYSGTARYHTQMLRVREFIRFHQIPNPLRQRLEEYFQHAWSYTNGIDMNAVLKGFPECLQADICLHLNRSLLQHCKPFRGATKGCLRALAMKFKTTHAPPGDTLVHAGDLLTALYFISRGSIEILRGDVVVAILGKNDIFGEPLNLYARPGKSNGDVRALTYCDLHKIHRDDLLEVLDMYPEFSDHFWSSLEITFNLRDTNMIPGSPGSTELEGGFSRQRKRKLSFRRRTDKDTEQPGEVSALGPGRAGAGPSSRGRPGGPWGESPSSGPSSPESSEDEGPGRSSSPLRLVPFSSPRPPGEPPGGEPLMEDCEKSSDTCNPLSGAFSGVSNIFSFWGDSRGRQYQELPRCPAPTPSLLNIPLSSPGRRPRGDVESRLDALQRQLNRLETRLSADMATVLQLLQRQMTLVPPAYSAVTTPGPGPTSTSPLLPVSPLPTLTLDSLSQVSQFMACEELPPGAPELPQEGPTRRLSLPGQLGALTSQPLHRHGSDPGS", "assay": "primary screen, population patch clamp on CHO cells stably expressing hERG", "units": {"hERG current change (%, negative = inhibition) at 1uM": "%"}, "values": [
      {"smiles": "CCOc1ccc(-n2ccnc2SCC(=O)Nc2nnc(C)s2)cc1", "hERG current change (%, negative = inhibition) at 1uM": 5.85},
      {"smiles": "CCOC(=O)C1CCN(CC(=O)Nc2c(C(=O)OC)[nH]c3cccc(C)c23)CC1", "hERG current change (%, negative = inhibition) at 1uM": 12.4},
      {"smiles": "CCOC(=O)/C=C/C(=O)OCC(=O)Nc1ccc(C)cc1", "hERG current change (%, negative = inhibition) at 1uM": 4.82},
      {"smiles": "COc1ccc(S(=O)(=O)N2CCOCC2)cc1NC(=O)CCc1c[nH]c2ccccc12", "hERG current change (%, negative = inhibition) at 1uM": -1.59},
      {"smiles": "CCC(C)[C@H](NC(=O)c1cc2cc(Cl)ccc2n1C)C(=O)N1CCC[C@H]1C(=O)O", "note": "(stereo partly drawn)", "hERG current change (%, negative = inhibition) at 1uM": 12.8},
      {"smiles": "CCNC(=O)C(=O)NCCC1CCCCN1S(=O)(=O)c1cccs1", "note": "(stereo not drawn)", "hERG current change (%, negative = inhibition) at 1uM": 10},
      {"smiles": "Cc1cc(C)c2oc(C(=O)Nc3ccc(S(=O)(=O)N4CCCC(C)C4)cc3)cc(=O)c2c1", "note": "(stereo not drawn)", "hERG current change (%, negative = inhibition) at 1uM": 5.41},
      {"smiles": "COc1cccc2c1OCC/C2=N\\NC(=O)COc1ccc(C)cc1", "hERG current change (%, negative = inhibition) at 1uM": 13.9},
      {"smiles": "COc1cccc(C(=O)N(Cc2cc3cc(C)ccc3[nH]c2=O)C(C)C)c1", "hERG current change (%, negative = inhibition) at 1uM": 3.79},
      {"smiles": "O=C(c1ccco1)N1CCN(C(=O)c2[nH]ncc2[N+](=O)[O-])CC1", "hERG current change (%, negative = inhibition) at 1uM": 5.34},
      {"smiles": "Cc1cc(NC(=O)COC(=O)Cn2c(C)csc2=O)ccc1Br", "hERG current change (%, negative = inhibition) at 1uM": 5.55},
      {"smiles": "Cc1cccc(C(=O)NCCCNC(=O)c2ccco2)c1", "hERG current change (%, negative = inhibition) at 1uM": 2.96},
      {"smiles": "N#CC(C(=O)Nc1ccccc1)=C1Nc2ccccc2N1", "hERG current change (%, negative = inhibition) at 1uM": 15.1},
      {"smiles": "Cc1ccccc1Nc1c(C)c(C)nc2ncnn12", "hERG current change (%, negative = inhibition) at 1uM": 14.7},
      {"smiles": "Cc1cc(C)c(S(=O)(=O)N2CCCC(C(=O)NCCC3=CCCCC3)C2)c(C)c1", "note": "(stereo not drawn)", "hERG current change (%, negative = inhibition) at 1uM": 6.54},
      {"smiles": "COCCn1c(SC(C)C(=O)NCC2CCCO2)nc2scc(-c3ccc(F)cc3)c2c1=O", "note": "(stereo not drawn)", "hERG current change (%, negative = inhibition) at 1uM": -22.4},
      {"smiles": "COc1cccc(/C=C/C(=O)c2cccc([N+](=O)[O-])c2)c1", "hERG current change (%, negative = inhibition) at 1uM": 2.92},
      {"smiles": "CC(=O)/C(=N\\Nc1ccccc1)Sc1nncn1C", "hERG current change (%, negative = inhibition) at 1uM": 7.95},
      {"smiles": "CCOC(=O)c1sc(Nc2nc3c(F)cccc3s2)cc1C", "hERG current change (%, negative = inhibition) at 1uM": 12},
      {"smiles": "O=C(CSc1nc2ncc(Br)cc2[nH]1)c1ccc([N+](=O)[O-])cc1", "hERG current change (%, negative = inhibition) at 1uM": -12.2},
      {"smiles": "C=C(c1cccc2ccccc12)P(=O)(O)O", "hERG current change (%, negative = inhibition) at 1uM": 0.966},
      {"smiles": "COC(=O)c1cn(C(=O)c2ccccc2F)nc1N", "hERG current change (%, negative = inhibition) at 1uM": -7.5},
      {"smiles": "COc1ccccc1N1CCN(C(CNS(=O)(=O)c2ccccc2)c2cccnc2)CC1", "note": "(stereo not drawn)", "hERG current change (%, negative = inhibition) at 1uM": 1.14},
      {"smiles": "CCOC(=O)C1=C(C)Nc2ccccc2N=C1NC(=O)c1cccc(S(=O)(=O)NCc2ccccc2)c1", "hERG current change (%, negative = inhibition) at 1uM": -7.52}
    ]}
  ]
}
